The test system of one experiment is HSkMC. The experiment in a line: cytotoxicity call (relative viability < 0.9). The note with it: 10 µM.
The test system of another experiment is S. aureus RN4220. The experiment in a line: growth inhibition call (relative growth <= 0.2). The note with it: 50 µM.

This is one part of the list.

For `COc1ccc([Si](C)(C)[C@@H]2[C@@H](CC(=O)N3Cc4ccccc4C[C@H]3CO)O[C@]3(C(=O)N(Cc4ccc(N5C(=O)c6cccc7cccc5c67)cc4)c4ccccc43)[C@H]2C)cc1`, in the experiment with HSkMC, the cytotoxicity call was “inactive”. The growth inhibition call with S. aureus RN4220 was “inactive”.
As to `COc1ccc(C#Cc2ccc3c(c2)O[C@@H](CN(C)C(=O)CN2CCOCC2)[C@H](C)CN([C@H](C)CO)S3(=O)=O)cc1`, the cytotoxicity call in the experiment on HSkMC is “inactive”. The growth inhibition call with S. aureus RN4220 is “inactive”.
As for `C[C@H](CO)N1C[C@H](C)[C@@H](CN(C)S(=O)(=O)c2ccc(F)cc2)Oc2ccc(NC(=O)Cn3cnnn3)cc2C1=O`, the cytotoxicity call in the experiment with HSkMC is “inactive”. Moreover, the growth inhibition call with S. aureus RN4220 was “inactive”.
As for `COc1ccc([Si](C)(C)[C@H]2[C@H](CCO)O[C@@]3(C(=O)N(Cc4ccc(N5C(=O)c6cccc7cccc5c67)cc4)c4ccccc43)[C@@H]2C)cc1`, the cytotoxicity call in the experiment with HSkMC was “inactive”. For the same molecule, the growth inhibition call in the experiment with S. aureus RN4220 was “inactive”.
With `C[C@H](CO)N1C[C@H](C)[C@H](CN(C)Cc2ccc(-c3ccccc3)cc2)Oc2ccc(NC(=O)Cc3cn(C)c4ccccc34)cc2CC1=O`, the cytotoxicity call in the experiment with HSkMC is “inactive”. In addition, the growth inhibition call with S. aureus RN4220 was “inactive”.
On to `C[C@H](CO)N1C[C@H](C)[C@H](CN(C)Cc2ccc(-c3ccccc3)cc2)Oc2ccc(NC(=O)Cc3ccccc3)cc2CC1=O`, for which the cytotoxicity call in the experiment on HSkMC (human skeletal muscle cells) is “inactive”. Also, the growth inhibition call in the experiment with S. aureus RN4220 is “inactive”.
Turning to `COc1ccc(S(=O)(=O)N(C)C[C@H]2Oc3ccc(NC(=O)CCC(F)(F)F)cc3CC(=O)N([C@H](C)CO)C[C@@H]2C)cc1`, the cytotoxicity call with HSkMC is “inactive”. Besides, in the experiment with S. aureus RN4220, the growth inhibition call was “inactive”.
As to `C[C@@H]1CN([C@@H](C)CO)C(=O)c2cc(NC(=O)Nc3ccccc3)ccc2O[C@@H](C)CCCCO[C@@H]1CN(C)C(=O)NC1CCCCC1`, the cytotoxicity call with HSkMC was “inactive”. Moreover, in the experiment with S. aureus RN4220, the growth inhibition call was “inactive”.
In the case of `C[C@H](CO)N1C[C@H](C)[C@@H](CN(C)CC2CCCCC2)Oc2ccc(NC(=O)Cc3cn(C)c4ccccc34)cc2C1=O`, the cytotoxicity call in the experiment with HSkMC was “inactive”. Moreover, the growth inhibition call in the experiment with S. aureus RN4220 is “inactive”.

(Values after the antibiotic and cytotoxicity screens of Wong et al. (2023).)
